Assay results reported in the supplement of paper PMC3334620.
The full ranking holds about 33,000 sequences; the median of “E-score (-0.5 to 0.5)” is about -0.043, and the highest 2% start at about 0.37. The list shows a part of the results.

Target: T1, Upc2 (UniProt Q12151)
T1 sequence: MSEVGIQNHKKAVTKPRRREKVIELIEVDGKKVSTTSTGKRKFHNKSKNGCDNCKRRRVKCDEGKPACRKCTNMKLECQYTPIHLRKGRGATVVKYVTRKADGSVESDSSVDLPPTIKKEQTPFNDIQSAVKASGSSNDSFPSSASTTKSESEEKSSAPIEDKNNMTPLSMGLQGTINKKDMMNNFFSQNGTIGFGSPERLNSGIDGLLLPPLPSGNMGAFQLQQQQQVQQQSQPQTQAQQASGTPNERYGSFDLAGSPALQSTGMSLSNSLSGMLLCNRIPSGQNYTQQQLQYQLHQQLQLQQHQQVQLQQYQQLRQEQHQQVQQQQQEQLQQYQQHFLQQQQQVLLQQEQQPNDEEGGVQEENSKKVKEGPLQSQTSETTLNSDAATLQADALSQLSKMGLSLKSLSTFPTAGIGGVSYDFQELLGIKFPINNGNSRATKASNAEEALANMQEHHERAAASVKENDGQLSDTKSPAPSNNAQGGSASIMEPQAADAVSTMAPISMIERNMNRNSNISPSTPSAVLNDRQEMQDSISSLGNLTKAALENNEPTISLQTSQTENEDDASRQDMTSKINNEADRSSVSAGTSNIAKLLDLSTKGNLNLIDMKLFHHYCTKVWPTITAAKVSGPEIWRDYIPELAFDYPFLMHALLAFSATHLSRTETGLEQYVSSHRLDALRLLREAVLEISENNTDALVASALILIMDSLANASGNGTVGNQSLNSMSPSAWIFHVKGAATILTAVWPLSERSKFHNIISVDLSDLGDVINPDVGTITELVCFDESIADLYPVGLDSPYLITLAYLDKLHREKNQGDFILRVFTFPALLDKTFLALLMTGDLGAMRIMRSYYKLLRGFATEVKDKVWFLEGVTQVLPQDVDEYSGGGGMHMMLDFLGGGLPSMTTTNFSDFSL
Assay: PBM E-score (8-mer binding enrichment) (E-score (-0.5 to 0.5)); higher = stronger / more preferred TF binding; most listed sequences are background and not binding sites
Conditions: protein concentration: 200 nM; construct: GST-full length
Outline: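 Universal all-10-mer Agilent arrays, fresh or stripped once, were converted to double-stranded form by primer extension. GST-tagged yeast transcription factors from PURExpress in vitro transcription/translation, full-length or DNA-binding domain only, were applied at about 100-200 nM and detected with fluorescent anti-GST. After masliner normalisation, the Universal PBM Analysis Suite scored each ungapped eight-base word together with its reverse complement by E-score.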

| Sequence | PBM E-score |
| --- | --- |
| GGACAAAC | 0.0202 |
| ATCAATGC | -0.23 |
| AACATCCA | -0.0529 |
| ATAGCCAG | -0.187 |
| GAAAAGGA | -0.106 |
| AATAACAC | 0.011 |
| GACCAAGC | -0.234 |
| AAACCCAG | -0.0692 |
| ACATCAAC | -0.0117 |
| CCACCAAG | -0.252 |
| ATGGAAAA | -0.0492 |
| ACCTCCAA | -0.167 |
| ACGGGTCA | -0.0315 |
| CCTGATCG | 0.0348 |
| TCCTGCCA | -0.307 |
| GAGCTAAA | -0.0249 |
| AAATTGAT | -0.0683 |
| ATTTGTGA | -0.0807 |
| ATTTGGGA | -0.084 |
| ACGTGCCT | 0.0149 |
| GTTACAAC | 0.0226 |
| ATCTTCGG | 0.174 |

| Sequence | PBM E-score |
| --- | --- |
| AAACTAAT | 0.144 |
| ATCCCATC | -0.154 |
| AGCCTGCG | -0.113 |
| GTCCCCAC | -0.218 |
| GAGTGGTA | -0.00107 |
| ATGTCAAT | -0.122 |
| AATCGAAC | 0.0976 |
| TATAGGAA | 0.0753 |
| GACTCACC | -0.212 |
| GCCACTCA | -0.136 |
| CTTCGAAC | 0.0736 |
| GTATCAGA | 0.0608 |
| GGACTGCA | -0.275 |
| CAGTTGTC | -0.147 |
| GACTAGAA | 0.0541 |
| ATCGGCGG | -0.0679 |
| CTTGGGTA | -1e-05 |
| CGGACCCC | 0.103 |
| ACATCAGC | -0.281 |
| GGATAACA | -0.188 |
| ACGTTCAA | 0.238 |
| AGCATGTC | -0.219 |

| Sequence | PBM E-score |
| --- | --- |
| ATATTAGG | 0.0917 |
| AGGATGGA | -0.0125 |
| AGTACCCC | -0.00507 |
| ATTGCAAT | -0.00146 |
| ATCGACAA | 0.0687 |
| TAACGACA | 0.381 |
| GTAGCTCA | -0.169 |
| ATCAAAGA | -0.232 |
| GATTCGGC | 0.0544 |
| CCCTAGAG | -0.382 |
| GCCTATCC | -0.103 |
| TACTCAGA | -0.0518 |
| ATTAGAGC | 0.0731 |
| ACATCGAT | -0.0473 |
| ACTAAGGA | 0.0681 |
| CTGACTGC | -0.214 |
| GTGGAGGA | -0.181 |
| GACACGCC | 0.0711 |
| AGCTGGTA | -0.167 |
| CTCAGTCA | -0.205 |
| GGAAATTA | -0.0619 |
| GAGAGCCC | 0.0408 |

| Sequence | PBM E-score |
| --- | --- |
| ACAGTCTG | -0.015 |
| GAGCCAGA | -0.182 |
| TCGCCCGA | -0.206 |
| CGGATAGC | 0.159 |
| CCGTCAAA | 0.0979 |
| GATTTGAA | -0.0247 |
| ACATACCG | 0.0168 |
| AGCATCAT | -0.246 |
| TACGATAA | 0.416 |
| CAAATTTC | 0.049 |
| AACTCGCT | 0.254 |
| AGCTCGCA | 0.205 |
| GACCACTC | 0.0262 |
| GTACCTCA | 0.0144 |
| CTAGGCAC | -0.258 |
| GCCTGATA | -0.0477 |
| AAAGGAAG | -0.2 |
| CTCGCGAA | 0.267 |
| CGGGATCC | 0.0926 |
| CCGTGAAA | -0.0103 |
| CTTTACTA | -0.117 |
| AACTTGCA | 0.0503 |

| Sequence | PBM E-score |
| --- | --- |
| GCCCCTGA | -0.2 |
| ACGGTTTG | 0.18 |
| GTGAGCCA | -0.117 |
| ATAAATAA | 0.202 |
| CAATGGAA | -0.0836 |
| CCTCTTCA | -0.149 |
| ATAAGTAA | 0.0283 |
| CTCTTAGA | -0.0667 |
| TCGTCACA | 0.00434 |
| AGAAAAAC | 0.00162 |
| CCGGTCCC | -0.168 |
| ATTACGAG | 0.378 |
| AATTAGCC | -0.128 |
| AGATTATG | -0.0643 |
| AGCGTGGG | -0.219 |
| ACATCATA | 0.00174 |
| CCATCCCC | -0.274 |
| CACATGCG | -0.0229 |
| TCGGCCAA | -0.0693 |
| CGAATGGC | -0.0195 |
| CAGGGACG | -0.198 |
